Laboratory results from PubChem BioAssay AID488969 (Vanderbilt High Throughput Screening Facility, 2010).
In all, about 110,000 compounds were measured (“z-score”: median about -0.1, highest 2% from about 2 on). This is one part of the list. Calls of active or inactive are those of the source.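 How the source made its calls: active means z-score in the third read window above 3 or below -3; inactive means the rest.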 Starred links: 1 amine or outer side, 2 acyl side, 3 side chain; linkers in the order of their positions; H or OH if unused. Residues, ends and D or L forms follow the SMILES beside them. *: point of attachment. Cbz = O=C(OCc1ccccc1)*; CO = O=C([*:1])[*:2]; NHPh = c1ccc(N*)cc1

Each molecule was assayed against Metabotropic glutamate receptor 8 (Rattus norvegicus) (UniProt P70579) (assay: rat mGluR8 modulators via GIRK flux, primary screen, cell-based, thallium flux, HTS (AID 488969)). Conditions: HEK293 rat mGluR8, GIRK (G protein-gated inwardly rectifying potassium channel) thallium flux, FluoZin2; at 10 µM; stronger effect = higher value; submaximal glutamate (EC20) added with thallium.
Chain of UniProt P70579 (P70579 whole entry, looked up): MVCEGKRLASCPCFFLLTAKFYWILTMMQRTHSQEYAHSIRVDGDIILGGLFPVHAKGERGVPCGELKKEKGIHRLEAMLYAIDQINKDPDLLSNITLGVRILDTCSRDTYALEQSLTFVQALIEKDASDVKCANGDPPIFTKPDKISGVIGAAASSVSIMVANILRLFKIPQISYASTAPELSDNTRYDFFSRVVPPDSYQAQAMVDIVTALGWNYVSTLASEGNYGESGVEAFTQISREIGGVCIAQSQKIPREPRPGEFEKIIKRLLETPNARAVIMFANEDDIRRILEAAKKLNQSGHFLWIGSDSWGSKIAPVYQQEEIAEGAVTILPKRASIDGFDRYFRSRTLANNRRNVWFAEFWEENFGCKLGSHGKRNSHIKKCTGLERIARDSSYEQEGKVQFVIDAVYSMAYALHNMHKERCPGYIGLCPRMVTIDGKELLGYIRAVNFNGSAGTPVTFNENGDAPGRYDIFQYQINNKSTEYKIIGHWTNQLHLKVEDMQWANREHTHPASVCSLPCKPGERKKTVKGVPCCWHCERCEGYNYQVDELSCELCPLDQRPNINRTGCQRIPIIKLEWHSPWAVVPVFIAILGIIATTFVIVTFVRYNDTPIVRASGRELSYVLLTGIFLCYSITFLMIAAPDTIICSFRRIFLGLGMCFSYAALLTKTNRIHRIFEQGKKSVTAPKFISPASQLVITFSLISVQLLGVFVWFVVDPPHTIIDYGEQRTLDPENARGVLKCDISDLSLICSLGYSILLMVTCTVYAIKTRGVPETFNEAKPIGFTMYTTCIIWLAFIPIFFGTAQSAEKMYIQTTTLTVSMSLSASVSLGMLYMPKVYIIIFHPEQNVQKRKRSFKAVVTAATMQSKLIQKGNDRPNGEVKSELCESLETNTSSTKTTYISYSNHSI

Row | Compound | z-score
1 | CC1CC2(NC(=O)NC2=O)C(C)CN1C (centres undefined) | -0.0766
2 | COc1ccc(OC)c(N/C(C)=C/C(=O)c2ccc(C)o2)c1 | 0.0767
3 | COc1ccc(NC(=O)/C(C#N)=C/C=C/c2ccco2)cc1 | -0.414
4 | CC1CCN(c2ccccc2NC(=S)NC(=O)c2cccs2)CC1 | 1.61
5 | C/C(=N\OC(=O)NC(C)C)c1sc(-c2ccc(Cl)cc2)nc1C | -0.551
6 | O=C(CCCn1c(=S)[nH]c2cc3c(cc2c1=O)OCO3)N1CCN(c2ncccn2)CC1 | 0.25
7 | O=C(CC1C(=O)NC2CCCCC2N1C(=O)c1ccc(F)cc1)Nc1ccccc1 (centres undefined) | -0.175
8 | COc1ccc(-n2cnnc2SCCC#N)cc1 | 0.0723
9 | O=C(Nc1cccc(-c2cc3ccccc3oc2=O)c1)c1ccc(Br)o1 | -0.101
10 | Nc1ccc(C(=O)N2CCCC2)cc1 | 0.864
11 | Cc1ccc(OCCn2cc(C(=S)N3CCCC3)c3ccccc32)cc1C | -0.0383
12 | O=C(Nc1ccc(N2CCCCC2)cc1)c1ccccc1 | -0.197
13 | COC(=O)c1ccc(SCc2cnc(Cl)s2)cc1 | 0.139
14 | COC(=O)C1=NN(C(C)=O)C2(CC(=O)N(c3cccc(C)c3)C2=O)C1 (centres undefined) | -1.5
15 | CC(C)(C)C(=O)NC(=S)Nc1cc(C(=O)O)ccc1Cl | -0.756
16 | Cc1cc(C)c(C#N)c(SCCS(=O)(=O)Cc2ccc(Cl)cc2)n1 | 0.179
17 | COC(=O)CNC(=O)CNC(=O)Nc1ccccc1 ({NHPh-CO}-Gly-Gly-OMe) | -0.494
18 | CCCc1noc2c1/C(=N\O)CC(c1ccccc1)C2 (centres undefined) | -0.153
19 | CCc1cc(=O)oc2cc(OCC(=O)O)c(Cl)cc12 | 0.51
20 | CCN=C1SC(C(=O)Nc2cccc(C)c2)CC(=O)N1CC (centres undefined) | -0.145
21 | COc1ccc(C2C(C#N)=C(N)Oc3n[nH]c(C)c32)cc1Cn1cc([N+](=O)[O-])cn1 (centres undefined) | -2.25
22 | Cc1cc(O)c(C=Nc2ccc(Cl)cn2)c(=O)o1 | -0.0105
23 | COc1ccc(NCC(=O)N/N=C/c2ccc3c(c2)OCCO3)cc1 | -0.0641
24 | Cc1noc(C)c1S(=O)(=O)N1CCC(C(=O)Nc2ccc(OC(F)(F)F)cc2)CC1 | 0.264
25 | Cc1sc2ncnc(NCC3(N4CCOCC4)CCCCC3)c2c1C | -0.201
26 | CN(C(=O)/C(N=Nc1cccc(C(F)(F)F)c1)=C(\O)C(F)(F)F)c1ccccc1 | -0.183

Row | Compound | z-score
27 | NC(=O)N1CC(O)CC1C(=O)Nc1ccc(Cl)c(Cl)c1 (centres undefined) | -0.279
28 | Cc1ccc(NCc2nc3ccccc3n2CCOc2ccccc2)cc1 | -0.0597
29 | CC(=O)NS(=O)(=O)c1ccc(NC(=S)NC(=O)c2ccco2)cc1 | -0.0158
30 | CCc1nc(SCC(=O)N2CCC(C)CC2)c2c(=O)n(C)c(=O)n(C)c2n1 | -0.364
31 | Clc1ccc(-c2nnc(NC3=NCCCCC3)o2)cc1 | 0.0658
32 | O=C(COc1ccccc1-c1ccccc1)Nc1ccc(S(=O)(=O)NCc2ccco2)cc1 | -0.157
33 | C=CCN1C(=O)C2(/C(=C(\O)c3ccc4c(c3)OCCO4)C(=O)C(=O)N2CCCOC)c2ccccc21 (centres undefined) | 0.102
34 | Cc1ccc(C(=O)NNC(=S)NC(=O)c2ccc(Cl)cc2)cc1 | active: 7.64
35 | CCOc1cc(C2/C(=C(/O)c3ccc(OC(C)C)cc3)C(=O)C(=O)N2CCCOC)ccc1O (centres undefined) | 0.645
36 | CCOC(=O)c1c(O)c2c([nH]c1=O)CCCC2 | -0.146
37 | O=C(Cn1nnc2ccccc2c1=O)N[C@@H](Cc1c[nH]c2ccccc12)C(=O)O | -0.161
38 | Cc1cccc(-n2c(O)c(/C=N/NC(=O)c3ccccc3Cl)c3ccccc3c2=O)n1 | active: 5.65
39 | O=C(CCCCCn1c(=S)[nH]c2ccc(N3CCOCC3)cc2c1=O)NCCc1ccccc1 | 0.0267
40 | O=C(CNC(=O)c1ccccc1)N/N=C/c1ccc([N+](=O)[O-])o1 | -0.0138
41 | Cc1c(NC(=O)CSc2nc(-c3ccco3)cc(C(F)(F)F)n2)c(=O)n(-c2ccccc2)n1C | -0.129
42 | COc1cc(S(=O)(=O)N2CCC(c3nc4ccccc4s3)CC2)ccc1S(=O)(=O)N1CC(C)CC(C)C1 (centres undefined) | 0.205
43 | CCOc1ccc(-n2cc(C(=O)Nc3ccc(Cl)cn3)c3cc(OC)c(OC)cc3c2=O)cc1 | -0.721
44 | CC(C)C1C(c2ccccc2)N(C)C(c2ccccc2)CC1(O)c1ccccc1 (centres undefined) | 1.25
45 | Cc1ccc(/C=C/C(=O)c2cc(Br)ccc2OC(=O)c2ccco2)cc1 | -0.117
46 | CN(Cc1ccccc1)c1nc(-c2ccc([N+](=O)[O-])cc2)nc2ccccc12 | -0.394
47 | Cc1cc(C)nc(NC(=O)NS(=O)(=O)N2CCCCCC2)n1 | 0.0342
48 | Oc1ccc(-c2[nH]nc(-c3ccccc3)c2-c2nc3ccccc3[nH]2)cc1 | -0.109
49 | Cc1ccc(S(=O)(=O)CCC(=O)OCc2ccc(Cl)cc2)cc1 | -0.694
50 | Cc1nnc(SCC(=O)N/N=C/c2cc(Cl)c(O)c(Cl)c2)s1 | -0.388
51 | CCCCNC(=S)Nc1ccc(-c2nc3ccc(C)cc3s2)cc1 | -0.126
52 | CN(C)c1cccc(C(=O)NNC(=O)NC2CCCCC2)c1 | -0.554

Row | Compound | z-score
53 | NC(=S)N=Nc1c(O)[nH]c2cc(F)c(F)cc12 | 1.16
54 | CC1CC(C)CN(CCCNC(=O)Cn2ncc3c(=O)oc4ccccc4c32)C1 (centres undefined) | -0.462
55 | CN(C)CC(C)(C)CNS(=O)(=O)CC12CCC(CC1=O)C2(C)C (centres undefined) | 0.137
56 | CCCc1nc2oc3c(NCCN(C)C)ncnc3c2c2c1CCCC2 | 0.466
57 | Cc1c(Cl)cccc1NC(=O)Nc1ccn(C)n1 | -0.296
58 | O=C(c1ccc(C#CC2(O)CCCCC2)cc1)N1CCN(Cc2ccccc2)CC1 | -0.528
59 | CN(C)c1ccc(NC(=O)COC(=O)Cn2nnc3ccccc32)cc1 | 0.25
60 | COC(=O)c1cc(=O)cc(C(=O)OC)o1 | 0.0127
61 | Cc1cccc2sc(NC(=O)C3CCCO3)nc12 (centres undefined) | -0.212
62 | FC(F)(F)c1ccc(/C=N/N2CCN(Cc3cccc4ccccc34)CC2)cc1 | 0.0424
63 | Cc1cc(C)n(Cc2ccc(Cl)cc2Cl)c(=O)c1S(=O)(=O)c1ccccc1 | -0.558
64 | O=C(NC(Cc1ccccc1)C(=O)N1CCN(c2ccccn2)CC1)c1ccco1 (centres undefined) | -0.0668
65 | O=C(Nc1ccccc1)c1cc([N+](=O)[O-])ccc1NCc1cccnc1 | -0.426
66 | CCOc1ccc(C2NC(=O)C(C#N)=C(S)N2c2ccc(C)cc2)cc1OC (centres undefined) | -0.229
67 | CCC(C)C(NC(=O)C(C)NC(=O)CNC(=O)CNC(=O)OCc1ccccc1)C(=O)OC (centres undefined) (Cbz-GGAI-OMe; configuration not given here) | 0.481
68 | O=C(COc1ccc(Br)cc1CO)Nc1ccccc1 | -0.336
69 | Cc1cccc(NC(=S)NC(=O)C(c2ccccc2)c2ccccc2)n1 | 0.232
70 | COc1cc2c(cc1NC(=O)/C=C/c1cc(OC)c(OC)c(OC)c1)oc1ccccc12 | -0.103
71 | Cc1cc(OCC(=O)C(C)(C)C)c2c(C)c(C)c(=O)oc2c1 | -0.653
72 | CCSc1nnc(NC(=O)c2cccc3ccccc23)s1 | -0.316
73 | CC(=O)Oc1ccc2c(=O)c(Oc3ccccc3)c(C)oc2c1OC(C)=O | -0.711
74 | COc1ccccc1NS(=O)(=O)c1ccc(NC(C)=O)cc1 | -0.372
75 | O=C(c1ccc(Cl)c(S(=O)(=O)NCc2ccco2)c1)N1CCN(c2ccc(F)cc2)CC1 | -0.13
76 | O=C(Cc1cccs1)N1CCN(S(=O)(=O)c2ccccc2)CC1 | -0.183
77 | C=CCn1c(SCC(=O)NC2CCCc3ccccc32)nnc1-c1ccncc1 (centres undefined) | -0.128
78 | CCOC(=O)C1C(=O)NC(N2CCN(Cc3ccccc3)CC2)=NC1c1ccccc1 (centres undefined) | -0.912

Row | Compound | z-score
79 | CCc1cc2ccc(C)cc2nc1SCC(=O)c1ccc(NC(C)=O)cc1 | -0.122
80 | CCOC(=O)CON1C(=O)c2ccccc2C1=O | 0.204
81 | O=C(Nc1nc(C2C3CC4CC(C3)CC2C4)cs1)c1cc2cc([N+](=O)[O-])ccc2oc1=O (centres undefined) | -0.372
82 | CC(=O)OCC(=O)N1CCN(c2ccc([N+](=O)[O-])cc2)CC1 | 0.0825
83 | CN(CC(=O)NC(=O)NCc1ccccc1)Cc1ccc(Cl)cc1 | -0.334
84 | CCC(=O)NC(Nc1sc2c(c1C(=O)OC)CCC2)C(Cl)(Cl)Cl (centres undefined) | -0.602
85 | COc1ccc(/C=N/NC(=O)c2ccc(COc3ccccc3Cl)o2)c(OC)c1C | -0.172
86 | Cc1ccc(N(C(=O)CNC(=O)c2ccco2)C(C(=O)NC2CCCC2)c2cccnc2)cc1C (centres undefined) | -0.146
87 | Cc1ccccc1-n1nc2c(c1NC(=O)c1cc3ccccc3oc1=O)CS(=O)C2 (centres undefined) | -1.54
88 | CCCC(=O)Nc1ccccc1-c1nnc(SC)[nH]c1=O | 0.00221
89 | O=C(N/N=C\c1cn[nH]c1-c1ccccc1)c1cccnc1 | 0.0508
90 | Cc1c(Cl)c([N+](=O)[O-])nn1CCCC(=O)Nc1cccc(Cl)c1Cl | -0.213
91 | O=C(Nc1cc(C(F)(F)F)ccc1N1CCCCC1)c1ccco1 | -0.156
92 | Cc1ccc(-c2cc(C(F)F)n3ncc(C(=O)N4CCCc5ccccc54)c3n2)cc1 | -0.0629
93 | O=C(NCC1CCCO1)C(=O)NCC(c1ccco1)N1CCN(c2ccccc2F)CC1 (centres undefined) | -0.438
94 | Cc1ccc2c(c1)C(C)CC(C)(C)N2C(=O)NC1CCCCC1 (centres undefined) | -0.123
95 | O=C(Nc1ccccc1Cl)N1CCN(c2ccc3nnc(-c4ccc(F)cc4)n3n2)CC1 | -0.852
96 | O=C(Cn1nc(-c2ccc(Cl)cc2)c2ccccc2c1=O)Nc1cccnc1 | -0.258
97 | O=C(CN(C(=O)Cn1nnc(-c2ccccc2F)n1)c1cccc2c1CCCC2)NCc1ccccc1 | -0.366
98 | O=C1CCCc2c1cc(C(=O)NCCCN1CCOCC1)c(=O)n2-c1ccc(Cl)cc1 | 0.187
99 | N#Cc1ccc(Oc2ccc(-c3cnc4ccccc4n3)cc2)cc1C#N | -0.166
100 | Cc1ccc(C)c(NC(=S)N2CCC(N(C)CC3CCCO3)CC2)c1 (centres undefined) | 0.13
101 | CCOC(=O)CC(=O)CSc1nnc(Cn2c(=O)sc3ccccc32)n1C | -0.362
102 | O=C(Nc1nnc(-c2ccc(Cl)cc2)o1)NC1CCCCC1 | -0.0226
103 | CCc1ccc(OCC(=O)NC(NC(=S)Nc2ccc(Cl)cc2)C(Cl)(Cl)Cl)cc1 (centres undefined) | -0.109
104 | Cc1cc(C)c2c(-n3cccc3)c(C(=O)NNS(=O)(=O)c3ccc(Cl)cc3)sc2n1 | 0.188
